Data published in US20090130676A1 (GENERAL HOSPITAL, published 2009).

Molecular target: T1, TrxA-peptide 3 (E. coli, UniProt P0AA25 1-33 = thioredoxin; P0AA25 36-109 = thioredoxin, limits assumed)
T1 construct: Insert of the library plasmid moved into pAL-TrxA and expressed in E. coli
Experiment: coprecipitation from bacterial extract with Gst beads, Western blot with anti-TrxA antibody

B1: Gst (enzyme)
chain: not shown
notes: also called Gst beads
B1: no binding.
